Consider 89 molecules from PMC4336329 (PLoS ONE, 2015).

Screen size: about 310,000 compounds; about 14,000 (4.5%) showed an effect of 50% or more. Effects have a minus sign here. Some of the results follow.
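Note: peak tail current of the secondary pulse compared with the same well before compound.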

human ether-à-go-go-related gene (hERG) potassium channel, sequence (Q12809 whole entry, looked up): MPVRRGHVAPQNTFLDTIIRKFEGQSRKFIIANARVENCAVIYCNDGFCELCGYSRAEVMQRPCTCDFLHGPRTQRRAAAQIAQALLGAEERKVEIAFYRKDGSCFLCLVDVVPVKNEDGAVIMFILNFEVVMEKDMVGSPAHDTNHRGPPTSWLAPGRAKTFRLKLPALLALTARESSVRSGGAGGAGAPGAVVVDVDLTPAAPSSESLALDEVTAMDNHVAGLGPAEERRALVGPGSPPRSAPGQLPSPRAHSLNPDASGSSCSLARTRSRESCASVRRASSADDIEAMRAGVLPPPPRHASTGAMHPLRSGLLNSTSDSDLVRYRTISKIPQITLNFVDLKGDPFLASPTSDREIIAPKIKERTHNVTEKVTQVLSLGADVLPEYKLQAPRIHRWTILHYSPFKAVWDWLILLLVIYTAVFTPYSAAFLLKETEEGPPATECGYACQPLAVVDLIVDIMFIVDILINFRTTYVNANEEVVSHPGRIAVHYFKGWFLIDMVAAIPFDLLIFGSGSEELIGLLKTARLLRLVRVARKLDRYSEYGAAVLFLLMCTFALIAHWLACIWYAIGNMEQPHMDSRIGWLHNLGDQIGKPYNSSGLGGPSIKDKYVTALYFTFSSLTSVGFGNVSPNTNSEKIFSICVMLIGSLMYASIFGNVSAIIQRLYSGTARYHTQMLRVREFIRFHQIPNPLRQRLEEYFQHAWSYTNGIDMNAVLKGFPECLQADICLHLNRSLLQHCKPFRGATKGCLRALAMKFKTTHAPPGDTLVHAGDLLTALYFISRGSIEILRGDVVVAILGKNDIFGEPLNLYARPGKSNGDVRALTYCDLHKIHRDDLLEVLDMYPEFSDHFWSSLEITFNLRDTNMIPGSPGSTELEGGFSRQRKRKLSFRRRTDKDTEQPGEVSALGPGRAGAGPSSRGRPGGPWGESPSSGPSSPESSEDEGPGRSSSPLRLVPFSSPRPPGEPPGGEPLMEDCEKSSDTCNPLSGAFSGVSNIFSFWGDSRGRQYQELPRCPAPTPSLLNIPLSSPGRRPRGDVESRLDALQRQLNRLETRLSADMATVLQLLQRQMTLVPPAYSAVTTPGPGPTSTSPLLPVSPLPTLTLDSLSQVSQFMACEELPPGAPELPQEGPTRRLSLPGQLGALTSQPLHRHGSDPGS

The test has as its target human ether-à-go-go-related gene (hERG) potassium channel (human, UniProt Q12809). The test is described as follows: primary screen, population patch clamp on CHO cells stably expressing hERG.
With `Cc1ccc(S(=O)(=O)N2CCN(S(=O)(=O)c3ccc(C)cc3)C3OCCOC32)cc1` (centres unmarked), the “hERG current change (%, negative = inhibition) at 10uM” value came to 4.74%. With `CCOc1ccc2nc(SC3CC(=O)N(c4ccc(OC)cc4OC)C3=O)sc2c1` (centres unmarked) the figure was -5.66%. In the case of `Cc1c(C)n2c(SCC(=O)N3CCCCCC3)nnc2[nH]c1=O`, the “hERG current change (%, negative = inhibition) at 10uM” value stood at 18.8%. Then `O=[N+]([O-])c1ccccc1S(=O)(=O)Nc1ccn(Cc2c(F)cccc2Cl)n1`, with 5.7%. Then `CCOC(=O)/C(=N/Nc1ccccc1OC)N1CCCc2ccccc21`, with -1.38%; and `O=C(COc1ccccc1)Nc1cccc(-c2ccc(N3CCOCC3)nn2)c1`, with 0.467%; and `CN(C)c1nc(N(C)C)n(C(=O)c2ccc(F)cc2)n1`, with 4.79%. With `O=[N+]([O-])c1ccc2c(c1)C(N1CCOCC1)/C(=C/COc1ccc(Cl)cc1Cl)O2` (centres unmarked) the figure was -1.06%; with `Cc1ccc(NC(=O)Cn2c(=O)oc3ccccc32)cc1Cl`, 12.4%; with `CCCCCn1c(CNC(=O)CCC)nc2ccccc21`, -44.4%. Regarding `CCN=C1Cn2c(nc3scc(-c4ccccc4)c3c2=O)CN1CC`, the “hERG current change (%, negative = inhibition) at 10uM” value is -35.4%. In the case of `CC1CCN(S(=O)(=O)c2ccc(NC(=O)Cc3cccs3)cc2)CC1`, the “hERG current change (%, negative = inhibition) at 10uM” value was 7.13%. With `COc1ccc(S(=O)(=O)N2CCC(N3CCN(Cc4ccccc4)CC3)CC2)cc1.O=C(O)C(=O)O` the figure was -39.2%; with `O=S(=O)(Nc1ccccc1Br)c1cccs1`, 5.74%. With `CC1CCCCC12NC(=O)N(CC(=O)N(C)Cc1nc3ccccc3c(=O)[nH]1)C2=O` (centres unmarked) the figure was -18.9%; with `COc1ccc(-c2cc(C)no2)cc1S(=O)(=O)N1CCOc2ccccc21`, -10.9%. In the case of `CCc1ccc(NC(=S)N(CCCN2CCN(C)CC2)Cc2cccs2)cc1`, the “hERG current change (%, negative = inhibition) at 10uM” value is on record as -62.5%.

In the case of `Cc1ccc(SCCC(=O)OCn2nnc3ccccc3c2=O)cc1`, the “hERG current change (%, negative = inhibition) at 10uM” value is listed as 36.9%.

For the molecule `CCNC(=O)C1CCCN1S(=O)(=O)c1ccc(C)cc1` (centres unmarked), the “hERG current change (%, negative = inhibition) at 10uM” value was found to be 11.7%. As to `O=C(NC(Cc1c[nH]c2ccccc12)C(=O)N1CCOCC1)c1cccs1` (centres unmarked), the “hERG current change (%, negative = inhibition) at 10uM” value is 10.2%. Then `Cc1cc(C)c(C(=O)C(C)OC(=O)C2=COCCO2)cc1C` (centres unmarked), with 8.77%; and `Cc1c(NC(=O)c2cc(=O)[nH]c(=O)[nH]2)c(=O)n(-c2ccccc2)n1C`, with 5.42%.

Turning to `Cl.O=C1CSC(c2ccc([N+](=O)[O-])cc2)N1CCN1CCCCC1` (centres unmarked), the “hERG current change (%, negative = inhibition) at 10uM” value is on record as -94.9%.

Regarding `CC(C)(C)n1nc2c(c1NC(=O)c1ccc(Br)o1)CS(=O)C2` (centres unmarked), the “hERG current change (%, negative = inhibition) at 10uM” value turned out to be 16.7%. As for `COc1ccccc1C(=O)NCCc1nc2ccccc2n1C`, the “hERG current change (%, negative = inhibition) at 10uM” value turned out to be 2.48%. With `O=C(Nc1cccnc1)C1(c2ccc(Cl)cc2)CCCC1` the figure was -22.4%.

Turning to `CN(C)c1ccc(S(=O)(=O)NCC(=O)OCC(=O)Nc2cc(Cl)cc(Cl)c2)cc1[N+](=O)[O-]`, the “hERG current change (%, negative = inhibition) at 10uM” value is listed as 6.75%.

Consider `O=C(NCN1C(=O)C2C3C=CC(C3)C2C1=O)Nc1nccs1` (centres unmarked), for which the “hERG current change (%, negative = inhibition) at 10uM” value amounted to 3.4%. With `Cc1ccc(S(=O)(=O)/N=c2\ccc(Cl)cn2C(F)F)cc1` the figure was -9.9%; with `Cc1cc2cc(CCNC(=O)c3ccc(S(=O)(=O)N4CCOCC4)cc3)c(=O)[nH]c2cc1C`, 6.3%.

For `O=C(CNC(=O)c1ccc(=O)[nH]c1)Nc1ccc(F)c(F)c1`, the “hERG current change (%, negative = inhibition) at 10uM” value is 6.19%. Take `Cc1ccc2c(c1)c(C)cc[n+]2Cc1ccccc1.[Cl-]`: the “hERG current change (%, negative = inhibition) at 10uM” value is -1.61%. With `O=C(NN1CCOCC1)c1ccc(S(=O)(=O)N2CCCCC2)cc1` the figure was 9.93%; with `Cc1ccc(S(=O)(=O)NCc2ccccn2)cc1C`, -2.65%. With `CN1CCN(Cc2c(O)c(Cl)cc3c(-c4ccccc4)cc(=O)oc23)CC1` the figure was -3.97%. With `CC1(C(=O)N2CCN(c3ccc([N+](=O)[O-])cc3)CC2)CC1(Cl)Cl` (centres unmarked) the figure was -72.7%. On to `CC/C(C)=N/Nc1nc2sc3c(c2c(=O)[nH]1)CC(C)(C)OC3`, for which the “hERG current change (%, negative = inhibition) at 10uM” value is -11.7%. Then `COc1ccc(NC(=O)CN(c2ccc(OC)cc2)S(=O)(=O)c2ccc(OC)c(OC)c2)cc1`, with -3.12%; and `Cc1cc(C)cc(Oc2ccccc2/C=N\O)c1`, with -6.75%. Then `Cc1ccc(Cl)cc1NC(=O)COC(=O)C1CCCCC1`, with 7.48%; and `COc1ccc(C2CC(c3cccs3)=Nc3ccccc3S2)cc1` (centres unmarked), with -3.39%. Consider `CCOC(=O)C(=CNc1ccc(NC2=NCC(C)(C)S2)cc1)C(=O)OCC`, for which the “hERG current change (%, negative = inhibition) at 10uM” value is -40.8%. Turning to `COC(=O)CN1CCN(C(=O)c2ccc(F)cc2)c2ccccc2C1`, the “hERG current change (%, negative = inhibition) at 10uM” value is 8.05%.

Consider `O=C(O)CCn1cc(/C=C2\SC(=S)NC2=O)c(-c2ccccc2)n1`, for which the “hERG current change (%, negative = inhibition) at 10uM” value stood at 21.8%. Then `C=CCN1C(=O)CS/C1=C(\C#N)S(=O)(=O)c1ccc(C)cc1`, with -5.25%; and `CN(C)CCCOC(=O)c1ccc(Cl)cc1`, with -21.9%; and `COc1ccc(-n2cc(CNCCCn3ccnc3)c(-c3cccc(F)c3)n2)cc1`, with -75.2%.

In the case of `CCN(CC)S(=O)(=O)c1ccc2[nH]cc(C(=O)NCCN3CCCCC3C)c(=O)c2c1` (centres unmarked), the “hERG current change (%, negative = inhibition) at 10uM” value was -8.3%. Then `COc1ccc(CN2CCCCC2C)c(C)c1C` (centres unmarked), with -20.9%; and `COc1cccc(CN2CC(C(=O)NCCOc3ccccc3)CCC2=O)c1` (centres unmarked), with -8.6%; and `Cc1cc(C(=O)N2CCN(c3ncccn3)CC2)c(C)o1`, with 12.3%. `Cc1nn2c(=O)cc(CSc3nc4ccccc4[nH]3)nc2s1`: the “hERG current change (%, negative = inhibition) at 10uM” value was determined as 9.19%. On to `Cc1cc(C)n(-c2nc(SCCN(C)C)c3c4c(sc3n2)COC(C)(C)C4)n1`, for which the “hERG current change (%, negative = inhibition) at 10uM” value is recorded as -59.1%. Regarding `O=C(c1ccc(Cl)c(S(=O)(=O)N2CCc3ccccc3C2)c1)N1CCN(c2ccccc2)CC1`, the “hERG current change (%, negative = inhibition) at 10uM” value was -3.58%. With `CNc1ccc2nnc(C(F)(F)C(F)(F)C(F)(F)F)n2n1`, the “hERG current change (%, negative = inhibition) at 10uM” value is 13.9%. For `CC(C)NC(=O)NC(=O)CSc1nnc(-c2c[nH]c3ccccc23)o1`, the “hERG current change (%, negative = inhibition) at 10uM” value is listed as 21.6%. Then `O=C(COc1ncnc2ccccc12)Nc1cccc([N+](=O)[O-])c1`, with -2.61%. For `COc1ccc(C(=O)c2c3ccc(OC)cc3[n+]([O-])n2Cc2ccc(C(N)=O)cc2)cc1`, the “hERG current change (%, negative = inhibition) at 10uM” value was -42%. With `CCOC(=O)c1cc(-c2ccccc2)sc1NC(=O)CC(C)C` the figure was -3.78%; with `CCC1(C)N=c2c(c(=O)n(C)c(=O)n2C)=NO1` (centres unmarked), -8.49%; with `COc1ccc(F)cc1CN1CCN(CC(=O)Nc2ccccc2C(=O)NC2CC2)CC1`, -87.6%. Then `C/C(Cn1cnc([N+](=O)[O-])n1)=N\NC(=O)c1cccnc1`, with -4.25%; and `CCc1cc2cccc(C)c2nc1SCC(=O)NC1CCCC1`, with 0.843%.

`O=C(CSc1nc2ccccc2o1)N1CCCC1`: the “hERG current change (%, negative = inhibition) at 10uM” value turned out to be 10.9%. Turning to `COC(=O)COc1ccc(NC(=O)C2CCCO2)cc1` (centres unmarked), the “hERG current change (%, negative = inhibition) at 10uM” value is listed as 11.6%. With `FC(F)(F)c1cccc(CNC(=S)Nc2ccccc2)c1` the figure was -12.7%; with `Cc1c(Cl)cccc1NC(=S)NC(=O)CCN1C(=O)c2ccccc2C1=O`, 20.6%. With `Cc1ccc(NC(=S)N2CCN(Cc3ccccc3)CC2)c(C)c1` the figure was -3.93%; with `Cc1[nH]c(C(=O)O)c(C#N)c1C(=O)c1ccccc1`, 19%.

On to `Cc1ccc(C23CCC(=O)N2C(C(=O)O)CS3)c(C)c1` (centres unmarked), for which the “hERG current change (%, negative = inhibition) at 10uM” value is 12.1%. Regarding `Cc1ccc(C)c(NC(=S)N2CCC(NC(=O)c3ccc(F)cc3)CC2)c1`, the “hERG current change (%, negative = inhibition) at 10uM” value was 15.7%. Then `COCc1cc(=O)n2[nH]c(SC)nc2n1`, with -9.64%; and `CC(=O)Nc1cc(-c2ccc(Cl)cc2)nn1-c1ccccc1`, with -9.03%.

Regarding `Cc1cc(-c2nnc(CCC(=O)NCc3ccc(F)c(F)c3)o2)no1`, the “hERG current change (%, negative = inhibition) at 10uM” value was found to be 2.95%.

As to `CCCCC(CC)C(=O)Nc1ncc([N+](=O)[O-])s1` (centres unmarked), the “hERG current change (%, negative = inhibition) at 10uM” value is recorded as -20.5%. In the case of `O=C(NNC(=O)C1CCN(S(=O)(=O)c2cccc(C(F)(F)F)c2)CC1)C1CC1`, the “hERG current change (%, negative = inhibition) at 10uM” value came to 0.383%. Then `COC(=O)C(C)Oc1ccc2c(c1)O/C(=C\c1cccc(Br)c1)C2=O` (centres unmarked), with -46.9%. Take `Cc1ccsc1/C=N/NC(=O)Cn1nc(C)c([N+](=O)[O-])c1C`: the “hERG current change (%, negative = inhibition) at 10uM” value is given as -2.17%.

As to `Cn1cnnc1Sc1ccc(C(=O)OCC(=O)NCC(F)(F)F)cc1[N+](=O)[O-]`, the “hERG current change (%, negative = inhibition) at 10uM” value was 0.021%. Then `O=S(=O)(NC1C2CC3CC(C2)CC1C3)c1ccccc1` (centres unmarked), with -14.5%. Then `Cc1c(OCC(=O)N2C[C@H]3C[C@@H](C2)c2cccc(=O)n2C3)ccc2c3c(c(=O)oc12)CCCC3`, with -13.5%; and `CCn1cc([N+](=O)[O-])nc1C`, with 1.09%.

Turning to `CC(=O)Nc1ccc(SCC(=O)c2cc(C)n(C)c2C)cc1`, the “hERG current change (%, negative = inhibition) at 10uM” value was found to be 1.76%. With `Cc1cc(C)cc(OCC(=O)Nc2ccc3c(c2)C(=O)c2ccccc2C3=O)c1`, the “hERG current change (%, negative = inhibition) at 10uM” value was found to be 22.7%. With `O=S(=O)(NCc1ccccn1)c1ccccc1` the figure was -2.19%; with `CCOc1ccc(Br)cc1S(=O)(=O)NCc1ccncc1`, -3.01%. On to `N#CCc1c(C#N)c(N)nc(N2CCN(c3ccc(F)cc3)CC2)c1C#N`, for which the “hERG current change (%, negative = inhibition) at 10uM” value was -63.9%. Then `CCOC(=O)Cc1csc(SC(C)C(=O)Nc2ccc(NC(C)=O)cc2)n1` (centres unmarked), with 10.5%; and `CCC1=NNC(=O)C(CC(=O)Nc2ccccc2)c2cc(OC)c(OC)cc21` (centres unmarked), with -3.6%.
